Article PMC4336329 (PLoS ONE, 2015)
Screen size: about 310,000 compounds; about 14,000 (4.5%) showed an effect of 50% or more. The effect is printed as a negative number. This is one part of the list.

These compounds were tested against human ether-à-go-go-related gene (hERG) potassium channel (human, UniProt Q12809) (assay: primary screen, population patch clamp on CHO cells stably expressing hERG).
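Note: peak tail current of the secondary pulse compared with the same well before compound.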

Chain of human ether-à-go-go-related gene (hERG) potassium channel (Q12809 whole entry, looked up): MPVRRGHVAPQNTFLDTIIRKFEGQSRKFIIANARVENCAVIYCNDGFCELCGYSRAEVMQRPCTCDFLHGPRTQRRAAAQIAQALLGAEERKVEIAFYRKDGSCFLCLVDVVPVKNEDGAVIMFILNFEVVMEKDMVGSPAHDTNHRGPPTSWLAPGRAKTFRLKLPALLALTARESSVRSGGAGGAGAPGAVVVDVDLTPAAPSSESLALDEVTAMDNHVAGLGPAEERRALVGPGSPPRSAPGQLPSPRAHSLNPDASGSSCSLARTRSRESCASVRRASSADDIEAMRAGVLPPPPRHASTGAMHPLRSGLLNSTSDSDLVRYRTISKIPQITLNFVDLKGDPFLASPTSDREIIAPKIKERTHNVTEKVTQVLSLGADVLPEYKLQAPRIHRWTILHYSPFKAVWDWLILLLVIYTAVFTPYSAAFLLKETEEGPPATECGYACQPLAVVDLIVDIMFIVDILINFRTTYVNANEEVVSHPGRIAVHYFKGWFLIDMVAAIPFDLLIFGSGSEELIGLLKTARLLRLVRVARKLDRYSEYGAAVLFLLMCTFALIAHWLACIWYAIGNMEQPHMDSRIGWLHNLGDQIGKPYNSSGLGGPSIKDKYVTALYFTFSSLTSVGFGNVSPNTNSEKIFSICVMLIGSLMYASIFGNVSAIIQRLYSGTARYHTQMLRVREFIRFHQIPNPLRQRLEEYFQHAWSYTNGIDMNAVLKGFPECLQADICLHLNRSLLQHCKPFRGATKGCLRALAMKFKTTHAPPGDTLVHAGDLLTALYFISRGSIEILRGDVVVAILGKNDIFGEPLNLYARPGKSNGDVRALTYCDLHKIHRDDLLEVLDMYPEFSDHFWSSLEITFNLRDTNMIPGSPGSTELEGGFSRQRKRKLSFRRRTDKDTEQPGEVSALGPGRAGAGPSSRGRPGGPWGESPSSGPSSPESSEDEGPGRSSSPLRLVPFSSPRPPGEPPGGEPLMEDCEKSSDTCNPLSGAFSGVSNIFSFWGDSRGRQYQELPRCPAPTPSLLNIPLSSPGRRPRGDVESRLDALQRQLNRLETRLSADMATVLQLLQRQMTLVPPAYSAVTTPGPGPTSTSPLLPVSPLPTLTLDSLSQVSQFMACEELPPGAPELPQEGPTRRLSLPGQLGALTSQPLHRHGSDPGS

Row | Structure (SMILES) | hERG current change (%, negative = inhibition) at 10uM
1 | Cc1ccc(C(=O)NNC(=O)c2nn(-c3ccc(F)cc3)ccc2=O)cc1 | -19.7%
2 | O=C1[C@H]2[C@@H](c3ccc(F)cc3)N3C(=O)N(c4cccc(F)c4)C(=O)[C@@]3(Cc3ccccc3)[C@H]2C(=O)N1C1CCCCC1 | 24.2%
3 | Cc1ccc(CNS(=O)(=O)c2ccc(C(C)(C)C)cc2)n1C | 2.63%
4 | NC(=S)NNC(=O)Nc1ccc(Cl)c(Cl)c1 | 23.5%
5 | Cn1cc(S(=O)(=O)NCc2ccc(Cl)cc2)c(=O)n(C)c1=O | 4.54%
6 | Cc1cc(OCc2cc(C(=O)N(C)CC3CCOCC3)no2)cc(C)c1Cl | -69%
7 | C=CCc1ccc(OCCOCCN(C)C)c(OC)c1.O=C(O)C(=O)O | -27.5%
8 | COC(=O)[C@H](C(C)C)n1c(C)c(C(C)=O)c(C(C)=O)c1C | 12.6%
9 | c1ccc(NC2=NCCN2CC2CCCC2)cc1 | 15.8%
10 | Brc1ccccc1CNCCc1ccc2c(c1)OCO2 | 0.404%
11 | Cc1ccc2nc(C)c3c(c2c1)N(c1ccc(F)cc1)CC3 | -92.2%
12 | O=C(COC(=O)c1ncc(Cl)c(Cl)c1Cl)NCc1cccs1 | 6.8%
13 | FC(F)(F)c1cc(-c2cccs2)nc(-n2cc(Br)cn2)n1 | -11.2%
14 | C[C@@]12CCC=C[C@H]1[C@H](c1ccc(F)c(/C=C/c3ccccc3)c1)N(Cc1ccccc1)C2=O | 9.05%
15 | COc1ccc(-c2csc3ncn(CC(=O)N4CCOCC4)c(=O)c23)cc1 | 9.88%
16 | O=C(COc1ccccc1-c1ccccc1)NCc1cccc(Cl)c1 | 14.9%
17 | CCCCCC(=O)c1c(C)[nH]c(C(=O)OCC)c1C | -1.63%
18 | NS(=O)(=O)c1ccc(NC(=S)NC(=O)c2ccc3c(c2)OCO3)cc1 | 27.6%
19 | CCOC(=O)N1CCC(NC(=O)c2ccc3c(c2)N(C)CCS3)CC1 | -8.11%
20 | Cc1onc(-c2c(F)cccc2Cl)c1C(=O)N1C=CC(C(F)(F)F)=NCC1 | 7.17%
21 | CCNC(=S)N1CCN(S(=O)(=O)c2ccc(C)c(C)c2)CC1 | 8.91%
22 | Nc1nnc(SCC(=O)Nc2ccc(N3CCOCC3)c(Cl)c2)s1 | -8.33%
23 | CC(OC(=O)c1ccc2c(=O)n3c(nc2c1)CCCCC3)C(N)=O (stereo not drawn) | 22.5%

Row | Structure (SMILES) | hERG current change (%, negative = inhibition) at 10uM
24 | CC(=O)N1CCc2cc(Br)cc(S(=O)(=O)NCCN3CCCCC3C)c21 (stereo not drawn) | -6.34%
25 | O=C(NCc1ccc2c(c1)OCO2)C1CCC(CNS(=O)(=O)c2cccc3nsnc23)CC1 (stereo not drawn) | 4.04%
26 | COc1ccc(-n2c(SCC(=O)NCc3cccs3)nc3[nH]ncc3c2=O)cc1 | -23.9%
27 | O=C(O)CNC(=O)/C(=C\c1ccc2c(c1)OCO2)NC(=O)c1ccc(Br)cc1 | 8.77%
28 | Cc1ccc(S(=O)(=O)N2CCC(C(=O)N[C@@H](C)C(=O)NC3CCCCC3)CC2)cc1 | 13.9%
29 | Cn1c(Cn2cnc3ccccc32)nnc1SCc1ccccc1 | -6.18%
30 | CC1CCC2(CC1)NC(=O)N(CC(=O)Nc1sc3c(c1C(N)=O)CCC3)C2=O (stereo not drawn) | -3.32%
31 | CS(=O)(=O)c1ccc2nc(NC(=O)CN3CCCCCC3)sc2c1.O=C(O)C(=O)O | 4.7%
32 | O=C(N/N=C/c1ccc(O)cc1)c1cncc(Br)c1 | 2.52%
33 | CC(C)C(C(=O)Nc1ccc2c(c1)OCO2)N1C(=O)c2ccccc2C1=O (stereo not drawn) | -29.6%
34 | CCc1nnc(NC(=O)CSc2ccc(-c3ccco3)nn2)s1 | 3.73%
35 | O=C(Nc1cccn2ncnc12)C(F)(F)F | 21.7%
36 | Cn1c(SCc2ccccc2)nc2ccsc2c1=O | 2.72%
37 | CCOc1ccc(-n2c(SCC(=O)NC(C)CC)nc3n[nH]c(C)c3c2=N)cc1 (stereo not drawn) | 10.2%
38 | CCOc1ccc(NC(=O)CN(Cc2ccccc2)S(C)(=O)=O)cc1 | 4.03%
39 | CC(C)N(CCNC(=O)c1oc(=O)c2ccccc2c1-c1ccccc1)Cc1ccco1 | -67.9%
40 | COc1ccc(-n2c(Cc3cccn3C)nnc2SCC(=O)Nc2nc(C)cs2)cc1 | -6.16%
41 | COc1ccc(COC(=O)C2=C(C)NC(=O)NC2c2ccc(O)cc2)cc1 (stereo not drawn) | -3.47%
42 | Cc1ccc(N2CCCC2=O)cc1S(=O)(=O)N1CCOCC1 | 9.97%
43 | CC(C)(C)c1ccc(C(=O)Nc2ccc(C(=O)N3CCCC3)cc2)cc1 | -37.6%
44 | CC1(C)C2([N+](=O)[O-])CN3CC1([N+](=O)[O-])CN(C2)C31CCCC1 | -14%
45 | O=C(NCCN1CCOCC1)c1ccccc1[N+](=O)[O-] | 1.06%
46 | Fc1ccccc1-n1cc(-c2ccccc2)[nH]c1=S | 17.9%

Row | Structure (SMILES) | hERG current change (%, negative = inhibition) at 10uM
47 | COc1ccc(S(=O)(=O)NCCCCCC(=O)O)cc1C(=O)O | 28.4%
48 | CCCc1nnc(SCC(=O)Nc2nc(C)cs2)n1CCOC | 4.13%
49 | Cc1c(OCC(=O)NC2CC(C)(C)NC(C)(C)C2)ccc2c3c(c(=O)oc12)CCC3 | 14.4%
50 | COc1ccc(C2(NC(C)=O)CCN(C(=O)CCC(=O)O)CC2)cc1 | 10.3%
51 | COc1ccc(C(=O)N/N=C/c2ccc(OC)c(COc3ccc(F)cc3F)c2)cc1 | 3.74%
52 | Oc1ccccc1-c1cc(C(F)(F)C(F)F)[nH]n1 | 1.94%
53 | Clc1ccc(C#Cc2cccnc2)cc1 | -2.6%
54 | Cn1c(Cc2ccccc2)nnc1SCC(=O)NC1CC1 | -8.78%
55 | COCc1nnc(NS(=O)(=O)c2ccc(Br)cc2)s1 | 14.1%
56 | CCOc1ccc(NC(=S)N(CCc2ccncc2)C(C)C)cc1 | -50.6%
57 | CCn1c(COc2ccccc2C)nc2ccccc21 | 4.07%
58 | CCc1ccccc1NC(=O)c1cc(-c2ccc3c(c2)OCO3)on1 | 3.52%
59 | CCC(=O)c1c(OCc2ccccc2)ccc2c(C)cc(=O)oc12 | 3.37%
60 | C[C@H](NC(=O)c1nc[nH]c1C(=O)N[C@@H](C)c1ccccc1)c1ccccc1 | 4.47%
61 | Cc1ccc(C(=O)OCC(=O)c2c(N)n(C)c(=O)n(C)c2=O)cc1S(=O)(=O)N1CCOCC1 | -22.4%
62 | c1ccc(Nc2ccc(-n3ccnc3)nn2)cc1 | 12.2%
63 | Cn1c(O)c(N=NC(=O)CNC(=O)/C=C/c2ccccc2)c2ccccc21 | -16.9%
64 | COc1ccccc1C(=O)NCC(=O)OC(C)C(=O)N1CCOCC1 (stereo not drawn) | 24.9%
65 | Cc1nn(C)cc1CN(C)C(=O)c1cc(COc2ccc(F)cc2F)on1 | -2.16%
66 | c1cc2ccc3ccc(CN4CCOCC4)c4ccc(c1)c2c34 | 5.3%
67 | CCN(C(C)=O)N(CC)c1nc(Cl)nc(NC(C)C)n1 | -8.48%
68 | O=C(Nc1ccccc1)OCCOc1ccccc1Br | 28.3%
69 | Cc1nn(-c2ccccc2)nc1C(=O)NN | 9.05%

Row | Structure (SMILES) | hERG current change (%, negative = inhibition) at 10uM
70 | COc1ccc(NC(=O)C2CC(=O)NC3=C2C(=O)CC(C)(C)C3)cc1 (stereo not drawn) | -1.79%
71 | COc1cccc(C2CC(c3ccccc3)Nc3nc(N)nn32)c1 (stereo not drawn) | -7.93%
72 | Cc1ccc(NC(=S)N2CCN(c3ccccn3)CC2)cc1C | 12.3%
73 | Cc1cc(C)c2c(c1)/C(=N/Nc1ccc(S(N)(=O)=O)cc1[N+](=O)[O-])CCC2 | 14.6%
74 | COc1cccc(/C=C2\Oc3cc(OCC(=O)N4CCCCC4)ccc3C2=O)c1OC | 18.6%
75 | CCNC(=O)C(=O)N1CCC2(CC1)OCCN2S(=O)(=O)c1ccc(C)cc1 | 2.81%
76 | O=C(Nc1cccc(Cl)c1)Nc1ccon1 | 9.69%
77 | CC(=O)Nc1sc(C)c(C)c1C(=O)OCCOc1ccccc1 | 15.3%
78 | COc1ccc(/C=N/Nc2cc(N3CCOCC3)ncn2)c(OC)c1 | 2.69%
79 | c1cn(CCCNC2=NCCCCC2)cn1 | 4.23%
80 | c1ccc(CCn2nnc3ccccc32)cc1 | -9.57%
81 | COc1cccc(OCC(=O)N2CCN(C)CC2)c1 | -10.1%
82 | Cc1cc(C(=O)N2CCC(C)CC2)on1 | 1.18%
83 | c1nc(NC2CCCCCC2)c2[nH]cnc2n1 | 17.5%
84 | O=C(Cc1csc(NC(=O)Nc2ccc(Cl)cc2)n1)NC1CCCC1 | 9.13%
85 | NNC(=O)COc1ccc(-c2nccc(-c3ccc(F)cc3)n2)cc1 | 16.1%
86 | C/C=C\C=C\C(=O)N1CC2(CC(c3cccc(NC(=O)COc4ccc(Cl)cc4)c3)=NO2)C[C@H]1C(N)=O (stereo partly drawn) | -76.9%
87 | CCOC(=O)c1nc(Nc2cc(Cl)ccc2OC)c2ccccc2n1 | 6.83%
88 | CC(C)N(C(=S)Nc1cccc(S(=O)(=O)N(C)C)c1)c1ccccc1 | 1.6%
89 | CCn1c(=O)c(C(=O)CN2CC(C)OC(C)C2)c(N)n(Cc2ccccc2)c1=O (stereo not drawn) | -32.6%
90 | O=C(NCc1ccccc1)c1ccc(C(=O)N(C2CCCCC2)C2CCCCC2)cc1 | -10.3%
